Experimental findings from paper PMC4336329 (PLoS ONE, 2015) are described below.

The campaign covered roughly 310,000 compounds. About 14,000 (4.5%) showed an effect of 50% or more. The effect is printed as a negative number. Some of the results follow.
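Further: peak tail current of the secondary pulse compared with the same well before compound.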

human ether-à-go-go-related gene (hERG) potassium channel, sequence (Q12809 whole entry, looked up): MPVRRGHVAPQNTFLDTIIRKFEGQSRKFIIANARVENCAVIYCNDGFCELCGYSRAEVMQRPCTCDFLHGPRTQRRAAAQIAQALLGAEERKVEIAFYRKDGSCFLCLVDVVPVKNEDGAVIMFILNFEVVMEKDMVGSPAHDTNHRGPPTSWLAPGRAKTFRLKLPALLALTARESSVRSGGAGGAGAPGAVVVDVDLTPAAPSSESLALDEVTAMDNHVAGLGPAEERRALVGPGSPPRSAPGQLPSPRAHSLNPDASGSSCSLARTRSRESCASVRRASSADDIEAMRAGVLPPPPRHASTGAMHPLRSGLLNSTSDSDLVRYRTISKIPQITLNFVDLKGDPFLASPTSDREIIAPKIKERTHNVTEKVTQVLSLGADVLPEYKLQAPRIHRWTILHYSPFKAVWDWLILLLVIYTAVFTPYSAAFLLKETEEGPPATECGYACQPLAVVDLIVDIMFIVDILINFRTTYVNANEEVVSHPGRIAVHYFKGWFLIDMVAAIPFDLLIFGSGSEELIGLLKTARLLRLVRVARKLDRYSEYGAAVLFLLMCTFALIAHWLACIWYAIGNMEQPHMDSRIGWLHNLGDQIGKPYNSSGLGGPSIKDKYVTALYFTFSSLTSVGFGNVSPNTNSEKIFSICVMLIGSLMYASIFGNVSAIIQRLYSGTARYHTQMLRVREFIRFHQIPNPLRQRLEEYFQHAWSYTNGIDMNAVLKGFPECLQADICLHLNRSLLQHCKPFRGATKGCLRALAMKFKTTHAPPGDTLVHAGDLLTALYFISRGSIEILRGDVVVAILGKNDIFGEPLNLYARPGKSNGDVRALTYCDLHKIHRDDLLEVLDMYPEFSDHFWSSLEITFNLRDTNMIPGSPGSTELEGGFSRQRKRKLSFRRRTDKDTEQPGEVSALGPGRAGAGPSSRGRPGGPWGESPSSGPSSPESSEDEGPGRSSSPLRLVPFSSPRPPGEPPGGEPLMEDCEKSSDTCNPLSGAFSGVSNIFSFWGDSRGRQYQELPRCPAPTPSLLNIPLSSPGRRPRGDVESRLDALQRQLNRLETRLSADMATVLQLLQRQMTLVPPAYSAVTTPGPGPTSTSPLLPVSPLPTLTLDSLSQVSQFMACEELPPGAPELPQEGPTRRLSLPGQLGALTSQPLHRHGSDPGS

The test concerns the target human ether-à-go-go-related gene (hERG) potassium channel (human, UniProt Q12809). Put plainly: primary screen, population patch clamp on CHO cells stably expressing hERG.
As to `C/C(=N\NC(=O)CC#N)C1COc2ccccc2O1` (centres unmarked), the “hERG current change (%, negative = inhibition) at 10uM” value was 13%.

In the case of `CCC(C)(C)n1nnnc1C(c1ccc(C)cc1)N1CCSCC1` (centres unmarked), the “hERG current change (%, negative = inhibition) at 10uM” value was -55.1%.

Regarding `Clc1ccc(N=C2SCCS2)cc1`, the “hERG current change (%, negative = inhibition) at 10uM” value is given as 5.13%.

In the case of `NC(=O)N[C@@H](Cc1c[nH]c2ccccc12)C(=O)OCC(=O)N1CCCCC1`, the “hERG current change (%, negative = inhibition) at 10uM” value is reported as 32%.

Consider `Cc1ccc(C(=O)NNC(=S)NC(=O)c2ccccc2)cc1`, for which the “hERG current change (%, negative = inhibition) at 10uM” value is listed as 14.2%.

As to `O=C1c2ccccc2C(=O)N1c1ccc(Cl)cc1`, the “hERG current change (%, negative = inhibition) at 10uM” value is 18.9%.

For `COC(=O)c1ccccc1NC(=O)CCCn1nc([N+](=O)[O-])c(Br)c1C`, the “hERG current change (%, negative = inhibition) at 10uM” value is on record as -19.6%.

For `O=C(Nc1cccc(C(F)(F)F)c1)c1cccc(NS(=O)(=O)c2ccc(O)c(C(=O)O)c2)c1`, the “hERG current change (%, negative = inhibition) at 10uM” value turned out to be 36.2%.

With `CCOC(=O)N1CCN(C(=O)c2c(-c3ccccc3)noc2C)CC1`, the “hERG current change (%, negative = inhibition) at 10uM” value was found to be 1.15%.

As to `CCOC(=O)c1cc(-c2ccc3c(c2)OCO3)nc2onc(C)c12`, the “hERG current change (%, negative = inhibition) at 10uM” value turned out to be 10.8%.

Regarding `CC1(C)CC(=O)C(Sc2ccccc2)=C(O)C1`, the “hERG current change (%, negative = inhibition) at 10uM” value stood at 15.8%.

In the case of `O=C(NCc1ccco1)/C(=C/c1ccco1)NC(=O)c1ccccc1`, the “hERG current change (%, negative = inhibition) at 10uM” value came out at 4.34%.

With `CCC(=O)N(CCO)Cc1cc2ccc(C)c(C)c2[nH]c1=O`, the “hERG current change (%, negative = inhibition) at 10uM” value was -11.4%.

For `CC12CN3CC(C)(CN(C1)C3c1ccc(Cl)cc1)C2` (centres unmarked), the “hERG current change (%, negative = inhibition) at 10uM” value is on record as -1.13%.

Consider `Cn1nc(C(=O)N2CCOCC2)c([N+](=O)[O-])c1C(=O)N1CCOCC1`, for which the “hERG current change (%, negative = inhibition) at 10uM” value is reported as -54.4%.

Regarding `Nc1nc(Nc2ccccc2)sc1C(=O)c1ccccc1`, the “hERG current change (%, negative = inhibition) at 10uM” value is listed as -17.6%.

For `O=c1cc2oc3cc(O)c(O)cc3c(-c3ccccc3[N+](=O)[O-])c-2cc1O`, the “hERG current change (%, negative = inhibition) at 10uM” value amounted to 2.13%.

As to `CCOc1ccc(NS(=O)(=O)c2ccc3c(c2)CCN3C(=O)C2CCC2)cc1`, the “hERG current change (%, negative = inhibition) at 10uM” value is reported as 3.92%.

In the case of `C[C@H](NC(=O)CCCOc1ccc(Cl)cc1Cl)c1nnc2ccccn12`, the “hERG current change (%, negative = inhibition) at 10uM” value is recorded as -39.2%.

For the compound `O=C(CCc1ccc(S(=O)(=O)N2CCOCC2)cc1)Nc1nccs1`, the “hERG current change (%, negative = inhibition) at 10uM” value is -5.94%.

In the case of `CCOC(=O)N1CCN(C(=O)CC(=O)Nc2ccc3nc4n(c(=O)c3c2)CCCCC4)CC1`, the “hERG current change (%, negative = inhibition) at 10uM” value is reported as 10.6%.

`COc1ccccc1NC(=O)Cn1c(C)nc2c(sc(=S)n2Cc2ccco2)c1=O`: the “hERG current change (%, negative = inhibition) at 10uM” value was -32.6%.

Consider `Cc1ccc(Nc2nnc(SCC(=O)Nc3ncc(C(F)(F)F)cc3Cl)s2)cc1`, for which the “hERG current change (%, negative = inhibition) at 10uM” value is 4.68%.

Turning to `Cc1cc(C)nc(OC(C(=O)O)C(OCC(C)C)(c2ccccc2)c2ccccc2)n1` (centres unmarked), the “hERG current change (%, negative = inhibition) at 10uM” value is 17.8%.

Regarding `COCC1CCN(C(=O)c2cc(COc3cc(C)c(Cl)c(C)c3)on2)C1` (centres unmarked), the “hERG current change (%, negative = inhibition) at 10uM” value was found to be 10.5%.

Consider `CCn1c(C)cc(/C=C2/SC(=S)NC2=O)c1C`, for which the “hERG current change (%, negative = inhibition) at 10uM” value turned out to be 13.7%.

For `CC(=O)c1ccc(N2CCN(C(=O)c3cc(-c4cccnc4)nc4ccc(Br)cc34)CC2)cc1`, the “hERG current change (%, negative = inhibition) at 10uM” value came to 2.5%.

In the case of `Cc1ccc(NC(=O)CCC(=O)N/N=C/c2cccs2)cc1C`, the “hERG current change (%, negative = inhibition) at 10uM” value is given as -14.3%.

Take `CCCCNC(=O)COC(=O)c1ccc(Cl)c(S(=O)(=O)N2CCCC2)c1`: the “hERG current change (%, negative = inhibition) at 10uM” value is given as -26.6%.

Take `CCNS(=O)(=O)c1cc(OC)c(Cl)cc1OC`: the “hERG current change (%, negative = inhibition) at 10uM” value was found to be 14.5%.

With `CCCC(=O)Nc1ccc(C#Cc2ccccc2)cc1`, the “hERG current change (%, negative = inhibition) at 10uM” value is recorded as 4.3%.

Consider `COCCNc1oc(-c2cccs2)nc1S(=O)(=O)c1ccc(C)cc1`, for which the “hERG current change (%, negative = inhibition) at 10uM” value is recorded as -26.4%.

On to `CSc1nc(SCC(=O)O)c2c3c(sc2n1)COC(C)(C)C3`, for which the “hERG current change (%, negative = inhibition) at 10uM” value is -4.79%.

For the compound `O=C1C(Cl)=C(N2CCCCC2)C(=O)N1Cc1ccccc1`, the “hERG current change (%, negative = inhibition) at 10uM” value was determined as 1.36%.

With `Cc1ccc(C(=O)N(CCN(C)C)CC2CCCN(Cc3ccccc3F)C2)cc1C` (centres unmarked), the “hERG current change (%, negative = inhibition) at 10uM” value is 3.89%.

For `Cc1cc(C)c(S(=O)(=O)NNC(=O)C2CCN(Cc3ccccc3)CC2)c(C)c1`, the “hERG current change (%, negative = inhibition) at 10uM” value is given as -14.4%.

Regarding `Cc1ccc(S(=O)(=O)CCC(=O)OCC(=O)c2cc(C)n(C)c2C)cc1`, the “hERG current change (%, negative = inhibition) at 10uM” value is on record as -10.1%.

With `COc1ccccc1C(CNC(=O)c1oc2ccccc2c1C)N1CCCC1` (centres unmarked), the “hERG current change (%, negative = inhibition) at 10uM” value is listed as -41.9%.

As to `COc1ccc(C(=O)NNC(=O)Cn2nnc(-c3ccc(OC)c(OC)c3)n2)cc1`, the “hERG current change (%, negative = inhibition) at 10uM” value is 0.747%.

For `CCCC(C)NC(=O)Cc1ccccc1[N+](=O)[O-]` (centres unmarked), the “hERG current change (%, negative = inhibition) at 10uM” value was found to be 2.52%.

As for `COC(=O)c1sc(S(=O)(=O)N2CCCCC2C)c(C(=O)OC)c1C` (centres unmarked), the “hERG current change (%, negative = inhibition) at 10uM” value was -26.9%.

As for `O=C(CSc1nc(C(F)(F)F)cc(=O)[nH]1)Nc1ccc2c(c1)OCCO2`, the “hERG current change (%, negative = inhibition) at 10uM” value is reported as -10.4%.

As for `COC(=O)C1=C(c2cccc(OC)c2OC)C[C@@H]2CC[C@H]1N2C(=O)NCc1ccco1`, the “hERG current change (%, negative = inhibition) at 10uM” value was determined as 10.6%.

In the case of `O=C(Nc1ccc(Br)cn1)c1cccc(C(=O)Nc2ccc(Br)cn2)c1`, the “hERG current change (%, negative = inhibition) at 10uM” value came out at 9.34%.
